Reference: PubChem BioAssay AID504706 (National Center for Advancing Translational Sciences (NCATS), 2011)
About 200 (0.062%) of roughly 320,000 compounds were called active. Inconclusive results, whose numbers are uncertain, are shown with a selection of clear calls. The call rests on the fitted dose curve; in most records, active means well fitted activation curve with a large enough effect; inconclusive means small, poorly fitted or top-dose-only effect; inactive means no such curve, though single readings can be large or run the other way. No potency is given beside an inconclusive call; the fits are too rough.

Experiment: qHTS assay for re-activators of p53 using a Luc reporter; further: nearly all actives have a fitted effect of over 45% in size; on activity change, positive = activation: % of control where 0% means no effect
Conditions: H1299 p53-A138V BP100-luciferase reporter, luminescence, 24 h; series mostly up to 92.2 µM; activity change, positive = activation: at the top concentration
In short: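 H1299 (p53-null), stable ts p53-A138V + BP100-Luc; 1000 cells/well, Opti-MEM/10% FBS; cpd 4 pt, 1:5; 24 h, 37 deg C, 5% CO2; detection reagent 10 min RT; luminescence.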
Potency means the concentration at half of the fitted maximal effect; tags describe the fitted curve by direction and shape.

SMILES	activity change, positive = activation	Potency
Nc1ccc2c3c(cccc13)CC2	inactive: 15.6%	
Cc1cccc(/C(N)=N/OC(=O)COc2ccccc2Cl)c1		inconclusive [activator, partial curve, poor fit]
COC(=O)c1scc(C)c1NC(=O)c1cccc(C#N)c1		inconclusive [activator, single point]
O=S(=O)(NCCSc1ccccn1)c1ccc(Br)cc1	inactive: 1.49%	
Cc1ccc(C)c(-c2nnc(NC(=O)COc3ccccc3)o2)c1	inactive: -1.58%	
Cc1cc(O)ccc1N=Cc1c(C(F)(F)F)[nH][nH]c1=O	inactive: 13.3%	
COc1ccccc1NC(=O)/C=C\c1ccco1		inconclusive [activator, full curve, poor fit]
Cc1cccc(NNC(=O)C(=O)NNc2cccc(C)c2)c1	inactive: -6.55%	
CCOC(=O)c1sc(Nc2nc3c(OC)cccc3s2)nc1C		inconclusive [activator, full curve, poor fit]
O=C(COC(=O)CCC1CCCC1)Nc1nc2c(F)c(F)c(F)cc2s1	inactive: 0.753%	
O=C(Nc1nc2ccccc2s1)c1cccc(S(=O)(=O)N2CCc3ccccc32)c1		inconclusive [activator, partial curve, poor fit]
CCN(CC)c1ccc(C(=O)Nc2ccccc2)cc1[N+](=O)[O-]	inactive: -12.3%	
COc1ccccc1-c1c(C)nn2c(C)c(C(C)=O)cnc12		inconclusive [activator, partial curve, poor fit]
O=C1N=C(N2CCCC2)S/C1=C\c1cccc(Br)c1		inconclusive [activator, partial curve, poor fit]
Cn1cccc1C1CCCN1CC(=O)Nc1ccc(F)c(F)c1F (centres undefined)	inactive: -4.16%	
CCOCCc1nnc(NC(=O)c2cccc(F)c2)s1		inconclusive [activator, single point]
Cc1ccc(C(=O)/C=C\NCc2ccccc2)cc1		inconclusive [activator, partial curve, poor fit]
Cc1cccc(/C(N)=N/OC(=O)c2ccc(F)cc2)c1		inconclusive [activator, partial curve, poor fit]
c1ccc(-c2nc3c(ccc4ccccc43)[nH]2)nc1		inconclusive [activator, full curve, poor fit]
CCOc1cccc(C(=O)Nc2nc(-c3ccc(S(=O)(=O)N4CCOCC4)cc3)cs2)c1	inactive: -25%	
O=C(/C=C/c1ccc(Cl)cc1Cl)Nc1ccc(CN2CCOCC2)cc1		inconclusive [activator, single point]
CCN(CC)c1ccc(C=N/C(C#N)=C(\N)C#N)cc1		inconclusive [activator, partial curve, poor fit]
COc1ccc(/C=C(/CC(=O)Nc2ccccc2)c2nc3ccccc3s2)cc1		inconclusive [activator, full curve, poor fit]

SMILES	activity change, positive = activation	Potency
CCCN1CCC(=O)N([C@H](CSc2ccc(C)cc2)CC(C)C)CC1		inconclusive [activator, full curve, poor fit]
CCc1ccc(-c2ccc(C(=O)C(F)(F)F)[nH]2)cc1		inconclusive [activator, full curve, poor fit]
CCOC(=O)C(C(=O)NCc1ccc(F)cc1)c1ncc(C(F)(F)F)cc1Cl (centres undefined)		inconclusive [activator, partial curve, poor fit]
COc1cccc2cc(C(C)N(CCCN3CCOCC3)C(=S)Nc3ccccc3C)oc12 (centres undefined)	inactive: 6.14%	
N#Cc1ccc(C2=NC(C(F)(F)F)(C(F)(F)F)c3c(n(Cc4ccco4)c(=O)[nH]c3=O)N2)cc1	inactive: -2.31%	
CC1=C(C(=O)Nc2ccccn2)C(c2ccc(N(C)C)cc2)n2ncnc2N1 (centres undefined)		inconclusive [activator, single point]
O=C(Nc1ccccc1)Nc1ccccn1		inconclusive [activator, partial curve, poor fit]
CCC1=[N+](CC(=O)c2ccc(C)cc2)CCn2c(C)ccc21		inconclusive [activator, full curve, poor fit]
O=c1c2sc(-c3ccccc3)cc2nc2n1CCC2	inactive: 34.7%	
O=C(CCSc1ccc(Br)cc1)c1ccc(O)cc1		inconclusive [activator, full curve, poor fit]
CC(=O)Nc1ccccc1OCC(=O)c1ccc2c(c1)OCO2		inconclusive [activator, full curve, poor fit]
Cc1ccc(NC(=O)Cc2ccc(Cl)c(Cl)c2)cc1S(=O)(=O)N(C)C		inconclusive [activator, single point]
CC(C)CNC(=O)c1ccccc1N(Cc1ccccc1)S(C)(=O)=O		inconclusive [activator, single point]
Cc1ccc(NC(=O)c2cnc(SCC(=O)NCC3CCCO3)n(C)c2=O)cc1 (centres undefined)		inconclusive [activator, full curve]
CCOC(=O)N1CCN(S(=O)(=O)c2ccc(C(=O)Nc3sc4c(c3C(N)=O)CCN(CC)C4)cc2)CC1		inconclusive [activator, partial curve, poor fit]
CCn1c(C)cc2c(c1=O)C(c1ccncc1)C(C#N)=C(N)O2 (centres undefined)	inactive: -3.23%	
COc1ccc(NC2=CC(=O)N(C)C2=O)cc1		inconclusive [activator, partial curve, poor fit]
CC1(C)CSC(=NCc2ccccc2)N1C(=O)c1cccc([N+](=O)[O-])c1		inconclusive [activator, single point]
O=S(=O)(c1ccc2c(c1)CCCN2)N1CCCC1		inconclusive [activator, partial curve, poor fit]
COc1c(OC(C)=O)ccc(/C=C/c2ccc3ccccc3n2)c1[N+](=O)[O-]		inconclusive [activator, full curve, poor fit]
COc1cc(/C=N/NC(=O)c2cccnc2)ccc1OS(=O)(=O)c1ccc(F)cc1		inconclusive [activator, partial curve, poor fit]
CN(C(=O)c1cc(-c2ccccc2)on1)C1CCCCC1		inconclusive [activator, partial curve, poor fit]
CN1CCN(C(=O)CCN2C(=O)/C(=C/c3ccc(F)cc3)SC2=S)CC1		inconclusive [activator, full curve, poor fit]

SMILES	activity change, positive = activation	Potency
CCOC(=O)c1ccc2nc(C(F)(F)F)[nH]c(=O)c2c1	inactive: -2.75%	
c1ccc(-n2ncc3c(NCc4cccnc4)ncnc32)cc1		inconclusive [activator, partial curve, poor fit]
Fc1ccc(-c2nnc(CSc3nnc4ccccn34)o2)cc1		inconclusive [activator, full curve, poor fit]
CN1c2ccccc2C(O)=C(C(=S)Nc2ccc(F)c(Cl)c2)S1(=O)=O	inactive: -9.08%	
Cc1ccc(NC(=O)/C=C/c2ccc([N+](=O)[O-])s2)cc1		inconclusive [activator, partial curve, poor fit]
Cc1ccc(S(=O)(=O)CNC(=S)c2cccc(C)c2)cc1	inactive: 0.884%	
CC1(C)OC2OC(C(=O)N/N=C/c3cc(Br)ccc3O)C3OC(C)(C)OC3C2O1 (centres undefined)	inactive: 12.1%	
CC(C)(C)C(=O)OCc1nc(-c2ccc3c(c2)OCCO3)cs1		inconclusive [activator, full curve, poor fit]
OC(Cn1cnnc1)c1ccccc1 (centres undefined)	inactive: -2.48%	
COC(=O)c1ccc(NC(=O)c2ccc(NS(=O)(=O)c3cccc4cccnc34)cc2)cc1	inactive: 2.68%	
COC(=O)c1ccccc1Sc1ncnc2onc(C)c12	inactive: -9.69%	
O=[N+]([O-])c1cccc(/C=N\N=C2c3ccccc3-c3ccccc32)c1O	inactive: 4.59%	
O=[N+]([O-])c1ccc2nc(-c3ccc(Cl)cc3)[nH]c2c1		inconclusive [activator, full curve, poor fit]
CC(=O)c1sc(NC(=O)c2cnc(Cl)c(Cl)c2)nc1C		inconclusive [activator, partial curve, poor fit]
CC(Oc1ccccc1F)C(=O)NC1CCS(=O)(=O)C1 (centres undefined)	inactive: -7.33%	
Cc1ccc(OCC(=O)Nc2ccc(C)c(F)c2)c([N+](=O)[O-])n1		inconclusive [activator, partial curve, poor fit]
Cc1ccc(Nc2nc(N)nc(CSc3nncn3C)n2)cc1		inconclusive [activator, partial curve, poor fit]
CC(C)c1nnc(NC(=O)COc2ccc3c(c2)OCO3)s1		inconclusive [activator, partial curve, poor fit]
Cc1ccc(C2/C(=C(\O)c3cnn(-c4ccccc4)c3C)C(=O)C(=O)N2CCN(C)C)o1 (centres undefined)	inactive: -10.5%	
Cc1oc(-c2ccc(Cl)cc2)nc1CN1CCC(C(=O)NCc2cccs2)CC1	inactive: 2.6%	
COc1ccc(S(=O)(=O)N2CCN(C(=O)c3ccc([N+](=O)[O-])o3)CC2)cc1		inconclusive [activator, partial curve, poor fit]
Cc1nn(-c2ccccc2)c(/N=C/c2ccc(O)cc2)c1-c1ccccc1		inconclusive [activator, partial curve, poor fit]
CCCCn1c(=O)[nH]c(=O)c2c1nc(-c1ccccn1)n2CC		inconclusive [activator, single point]
